Assay results reported in publication PMC4336329 (PLoS ONE, 2015).
In all, about 310,000 compounds went through this assay and about 2,200 (0.71%) showed an effect of 50% or more. Effects have a minus sign here. Some of the results follow.

molecular target: human ether-à-go-go-related gene (hERG) potassium channel (human, UniProt Q12809); test: primary screen, population patch clamp on CHO cells stably expressing hERG
Sequence (Q12809 whole entry, looked up): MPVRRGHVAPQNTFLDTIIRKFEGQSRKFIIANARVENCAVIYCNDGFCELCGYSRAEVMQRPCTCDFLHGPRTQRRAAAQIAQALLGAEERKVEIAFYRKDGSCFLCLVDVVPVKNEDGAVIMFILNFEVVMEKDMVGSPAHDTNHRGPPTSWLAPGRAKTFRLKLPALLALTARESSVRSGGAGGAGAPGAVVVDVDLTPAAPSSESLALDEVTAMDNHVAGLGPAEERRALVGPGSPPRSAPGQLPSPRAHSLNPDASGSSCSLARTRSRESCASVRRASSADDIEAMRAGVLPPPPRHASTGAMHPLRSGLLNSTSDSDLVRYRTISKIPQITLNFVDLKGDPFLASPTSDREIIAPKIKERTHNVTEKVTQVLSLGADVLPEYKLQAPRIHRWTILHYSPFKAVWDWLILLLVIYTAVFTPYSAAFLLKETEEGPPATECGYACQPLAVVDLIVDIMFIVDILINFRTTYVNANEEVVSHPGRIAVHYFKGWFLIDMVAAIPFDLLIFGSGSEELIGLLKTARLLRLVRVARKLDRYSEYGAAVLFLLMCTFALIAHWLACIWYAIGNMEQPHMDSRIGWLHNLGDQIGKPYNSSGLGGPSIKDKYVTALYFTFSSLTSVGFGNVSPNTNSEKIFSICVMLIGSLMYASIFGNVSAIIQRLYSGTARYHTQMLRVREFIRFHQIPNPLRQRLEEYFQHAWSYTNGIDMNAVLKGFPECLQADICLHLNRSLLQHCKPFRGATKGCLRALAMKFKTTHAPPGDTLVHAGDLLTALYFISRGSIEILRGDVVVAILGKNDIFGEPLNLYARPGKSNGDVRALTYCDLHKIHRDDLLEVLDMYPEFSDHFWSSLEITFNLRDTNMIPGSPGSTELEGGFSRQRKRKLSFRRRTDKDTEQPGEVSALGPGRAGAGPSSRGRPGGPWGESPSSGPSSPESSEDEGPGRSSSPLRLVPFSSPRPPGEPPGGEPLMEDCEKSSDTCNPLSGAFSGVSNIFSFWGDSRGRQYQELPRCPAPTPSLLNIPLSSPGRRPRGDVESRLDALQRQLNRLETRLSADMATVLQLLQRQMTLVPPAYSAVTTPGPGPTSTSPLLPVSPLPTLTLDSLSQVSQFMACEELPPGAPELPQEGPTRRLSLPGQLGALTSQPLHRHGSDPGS

SMILES	hERG current change (%, negative = inhibition) at 1uM [%]
CCCNc1nc(=S)n(-c2ccccc2)c(C)c1C(C)=O	-2.97
CC(C)CCNC(=O)NC(=O)COc1c(F)c(F)cc(F)c1F	-7.44
COCCNC(=S)N(CCc1c(C)[nH]c2ccc(Cl)cc12)Cc1cccs1	23.7
CCc1cc(=O)oc2cc(OCC(=O)N3C[C@H]4C[C@@H](C3)c3cccc(=O)n3C4)c(Cl)cc12	13
CC(=O)c1ccccc1NC(=O)COC(=O)Cc1cccc(C(F)(F)F)c1	-22.6
Cc1cc(C)c(Cn2ncn(-c3ccc(Br)cc3)c2=O)c(C)c1	11.8
O=C(CCn1nc(-c2ccc(Cl)cc2)ccc1=O)N1CCN(c2ccccc2)CC1	1.15
O=C(O)CC(c1ccc(OC2CCCC2)cc1)N1C(=O)c2ccccc2C1=O (stereo not shown)	12.5
COc1ccc(NS(=O)(=O)c2cn(C)cn2)cc1OC	16.4
CC(=O)c1cc(NC(=O)c2ccc(C)cc2)c(=O)oc1C	12.5
N#CC[C@H](Cc1ccccc1)N1CCN(Cc2ccccc2)CCC1=O	6.36
COC(=O)c1cc2sc(Cl)cc2n1Cc1nc(-c2ccccc2)oc1C	6.98
COc1ccc2c(CC(=O)Nc3ccccc3OC)coc2c1	5.01
CN(Cc1nc2ccccc2c(=O)[nH]1)C(=O)c1ccc(S(=O)(=O)N2CCCC2)cc1	-10.9
Cc1c(NC(=O)C2CCCN2S(=O)(=O)c2ccc(Cl)cc2)c(=O)n(-c2ccccc2)n1C (stereo not shown)	0.321
CCc1ccc(/C=C(/C#N)C(N)=S)s1	15
Cc1nc(C)c(C(=O)C2=C(O)C(=O)N(CCN3CCOCC3)C2c2cccs2)s1 (stereo not shown)	15
COc1ccc(NC(=O)c2cccc(Cn3cc(Br)c([N+](=O)[O-])n3)c2)c(C)c1	-18.1
O=C(COC(=O)CNS(=O)(=O)c1cccc(Br)c1)Nc1ccccc1Sc1ccccc1	12.1
O=C(Nc1cnn(C23CC4CC(CC(C4)C2)C3)c1)c1cnn2c(C(F)(F)F)cc(-c3ccco3)nc12	3.92
COCCn1nnnc1C(c1ccccc1OC)N1CCN(c2ccccc2)CC1.Cl (stereo not shown)	6.17
CC(C)(C)c1ccccc1NC(=O)CN1C(=O)NC2(CCCC2)C1=O	9.44

SMILES	hERG current change (%, negative = inhibition) at 1uM [%]
O=C(CSc1ncnc2nc[nH]c12)N1CCN(c2ccccc2)CC1	1.06
Cc1ccc(C)c(NC(=S)N(C2CCCCC2)C(C)c2cccnc2)c1 (stereo not shown)	-8.08
Cc1cc(S(=O)(=O)NC2CCCCC2)ccc1OCC(=O)NCc1ccccn1	5.58
O=C1c2cccc(O)c2C(=O)c2c(O)cc(CO)cc21	10.1
CC1=CCC2COC(c3ccc[n+](Cc4ccccc4)c3)C1C2.[Cl-] (stereo not shown)	3.07
COC(=O)c1ccc(C(=O)OC)c(NC(=S)N2CC(C)CC(C)C2)c1 (stereo not shown)	10.6
Cc1ccc(S(=O)(=O)N(Cc2ccccc2)C(C)C)cc1	-1.02
COc1ccc(C2CC(c3cccs3)=NN2C(=O)CSc2nncs2)cc1OC (stereo not shown)	-0.541
O=C(OCC(=O)c1c[nH]c2ccccc12)c1cc(S(=O)(=O)N2CCOCC2)ccc1F	2.38
CC(CC(=O)N1CCN(c2ccccc2F)CC1)c1ccccc1 (stereo not shown)	14.6
Cc1cc(C)c2c(CN3CCN(Cc4ccccc4)CC3)cc(=O)oc2c1.Cl	-22.2
Cn1ccnc1SCCNC(=O)C1CCC(=O)N(Cc2ccc(Cl)cc2)C1 (stereo not shown)	0.779
CC1CN(Cc2cc(=O)[nH]c(C3CC3)n2)CC(C)O1 (stereo not shown)	11.2
O=C(COc1ccc([N+](=O)[O-])cc1)Nc1ccc(CN2CCOCC2)cc1	-32.9
O=C(Cn1c(=O)oc2cc(S(=O)(=O)N3CCCC3)ccc21)N1CCN(c2ccccc2)CC1	7.36
Cc1cccc(N(C)C(=O)CCS(=O)(=O)c2cccc3nonc23)c1	0.162
CC(C)Cn1c(=O)c2ccccc2n2c(CCC(=O)NC3CCN(Cc4ccccc4)CC3)nnc12	2.71
Cc1cccc(N2C(=O)CC(N3CCOCC3)C2=O)c1 (stereo not shown)	10.9
COc1ccc(NCc2ccsc2)cc1	14.3
COc1ccc(NC(=O)CN(C)C(=O)C(CCSC)NC(=O)c2ccccc2)cc1 (stereo not shown)	13.8
CNC(=O)NC1CCCc2ccccc21 (stereo not shown)	10.3
Cc1cc(NC(=O)c2cncc(Br)c2)no1	14.6

SMILES	hERG current change (%, negative = inhibition) at 1uM [%]
CCC(C)N1C(=O)CN(C2CCCCCC2)C(=O)C1c1ccccc1F (stereo not shown)	17.4
COc1ccc(NC(=O)Cn2nnc(-c3ccccc3N)n2)cc1OC	7.36
Cc1cc(C)cc(NC(=O)c2ccc(CNc3c(N4CCOCC4)c(=O)c3=O)cc2)c1	10.5
O=C(CC1Oc2ccc(Cl)cc2NC1=O)NC1CCCCCC1 (stereo not shown)	6.95
CCN1CCN(c2nc(Nc3ccccc3)nc(N)c2[N+](=O)[O-])CC1	-13.3
CC(C)(C)c1cc(CNC2CS(=O)(=O)C[C@@H]2O)cc(C(C)(C)C)c1O (stereo partly shown)	12.7
COc1cc(Cl)ccc1S(=O)(=O)n1nc(C)cc1C	11.2
CC(=O)OCC(=O)[C@@]12OC(C)(C)O[C@@H]1C[C@H]1[C@@H]3C[C@H](F)C4=CC(=O)C=C[C@]4(C)[C@@]3(F)[C@@H](O)C[C@@]12C	14.8
Cc1oc(C)c(C(=O)Nc2ccc(CC(=O)O)cc2)c1C(=O)Nc1ccc(CC(=O)O)cc1	11.9
N#CC1=C(Nc2ccccc2)SC=C(c2ccc(F)cc2)N=C1N1CCOCC1	2.35
COC(=O)C1=C[C@@H](C(=O)OC)[C@@H]2C3=C(C(=O)[C@@]2(C)NC(=O)c2ccccc2)[C@H](C)C(C(=O)OC)=C(C(=O)OC)[C@@H]3C1	13.1
O=C1CCN(Cc2ccccc2)S(=O)(=O)c2c(F)cc(F)cc21	5.65
COc1ccccc1/C=C\C=N\n1c(C2CCCCC2)n[nH]c1=S	5.27
O=C(Nc1nc2c(s1)CCCC2)Oc1ccccc1	12.8
Cc1ccc(NC(=O)CCn2cccc2)cc1	18.9
Cc1ccc(C(=O)NC(=S)N2CCN(C(=O)OC(C)(C)C)CC2)cc1Br	11.7
COc1ccc(/C(O)=C2/C(=O)C(=O)N(c3ncccn3)C2c2ccc(OC)cc2)cc1 (stereo not shown)	13.6
COC(=O)c1ccc(OC(=O)N2CCOCC2)cc1	11.3
Nc1cc(N)cc(C(=O)Nc2ccc3c(c2)C(=O)NC3=O)c1	8.22
CCCOCCc1nnc(N)s1	16.7
C=C(C)CNC(=S)N/N=C(\C)c1ccc(-n2ccnc2)cc1	-7.94
O=C(Cc1ccccc1)NCC(=O)OCc1ccccc1F	12.6

SMILES	hERG current change (%, negative = inhibition) at 1uM [%]
CCSc1nnc(NC(=O)CSc2nnc(C)c(=O)n2N)s1	12.9
O=C(NC(Cc1ccc2c(c1)OCO2)C(=O)NC(Cc1ccccc1)C(=O)O)c1ccccc1 (stereo not shown)	9.34
CC(OC(=O)C1CCN(c2ccc(C(F)(F)F)cn2)CC1)C(=O)NC1CCCCC1C (stereo not shown)	-5.7
CCN1C(=O)/C(=C2\SC(=S)N(c3c(C)n(C)n(-c4ccccc4)c3=O)C2=O)c2ccccc21	6.3
N#Cc1ccccc1NC1=CC(=O)CCC1	5.61
COc1ccccc1-n1c(SCC(=O)N2CCOCC2)nc2ccccc2c1=O	12
Cc1ccc(C2=NS(=O)(=O)N(C)C(C(=O)NCc3ccccc3)=C2)cc1	9.25
COc1cc(C(O)CNC(C)C)cc(F)c1OC (stereo not shown)	5.66
Cc1ccsc1/C=C1\SC(=S)N(CC2CCCO2)C1=O (stereo not shown)	-0.84
O=C(/C=C/c1ccco1)Nc1ccc(S(=O)(=O)N2CCOCC2)cc1	8.3
COC(=O)COc1cccc(NC(=O)COc2ccccc2)c1	13.1
CC(NC(=O)C1CCC(C)(C(=O)O)C1(C)C)c1ccccc1 (stereo not shown)	13.8
O=C(CSc1ccccn1)Nc1ccc2[nH]c(=O)[nH]c2c1	9.65
CC(=O)c1ccc(N=Nc2ccc(N)cc2)cc1	11.4
CCN=C1S/C(=C\c2ccc(Sc3ccc(Cl)cc3)o2)C(=O)N1CC	-3.54
COc1ccc(C2C=C(c3ccccc3)Nc3nnnn32)cc1 (stereo not shown)	13.2
O=C(Nc1nonc1NC(=O)c1cccs1)c1cccs1	6.81
Cn1c(=O)[nH]c(=O)c2c1nc(SCC(O)CCl)n2Cc1ccccc1 (stereo not shown)	1.74
CC(=O)Nc1nc(C)c(Cc2ccccc2)c(=O)[nH]1	2.35
Clc1ccc(SCNc2ccccc2Cl)cc1	15.7
CCOC(=O)C1CCN(S(=O)(=O)c2ccc3c(c2)N(C(C)=O)CC(C)S3)CC1 (stereo not shown)	-15.6
CN(C(=O)COC(=O)/C=C/c1ccc(F)cc1)c1c(N)n(Cc2ccccc2)c(=O)[nH]c1=O	5.04
